# Reference: ChEMBL document CHEMBL5606460, “ASAP - DENV-2 NS2B-NS3 protease fluorescence single point” (2024)
# The whole screen tested about 2,000 compounds, of which about 110 (5.5%) showed an effect of 50% or more. Some of the results follow.
# Target: Genome polyprotein (dengue virus type 2) (UniProt P29990)
# [1] = Thailand/16681/1984, Concentration 25.0 uM, Number of replicates 1.0
smiles,measurement,setting,value
Cc1cc(CO)c2cccc(CC(=O)Nc3ccc(C(=O)O)o3)c2n1,inhibition,"Thailand/16681/1984, Concentration 49.95 uM, Number of replicates 2.0, Standard deviation 0.6719381020899052 %",88.9%
same,inhibition,"Thailand/16681/1984, Concentration 99.9 uM, Number of replicates 2.0, Standard deviation 0.0646782165500299 %",94%
Cc1cc(CO)c2cccc(Cc3cccc(C(=O)N[C@@H](C)C(N)=O)c3)c2n1,inhibition,"Thailand/16681/1984, Concentration 49.95 uM, Number of replicates 2.0, Standard deviation 0.7962665847500093 %",6.57%
same,inhibition,"Thailand/16681/1984, Concentration 99.9 uM, Number of replicates 2.0, Standard deviation 0.21200201975767785 %",24.1%
COc1ccc(C[C@H]2c3cc(OC)c(OC)cc3CCN2C(=O)C2CCN(c3ccc(C=O)cc3)CC2)cc1OC,inhibition,[1],15.8%
c1ccc2c(CN3CCC[C@H](c4c[nH]c5ccccc45)C3)c[nH]c2c1,inhibition,"Thailand/16681/1984, Concentration 50.0 uM, Number of replicates 2.0, Standard deviation 0.31540779529261 %",3.26%
same,inhibition,"Thailand/16681/1984, Concentration 100.0 uM, Number of replicates 2.0, Standard deviation 0.281265813425693 %",5.33%
same,inhibition,"Thailand/16681/1984, Concentration 200.0 uM, Number of replicates 2.0, Standard deviation 0.5614472727328977 %",8.73%
O=Cc1ccc(N2CCC(C(=O)N[C@H]3CC(=O)N(Cc4ccccc4)C3)CC2)cc1,inhibition,[1],14.5%
Cc1nc(C2CCN(Cc3c[nH]c4ccccc34)CC2)sc1C(=O)O,inhibition,"Thailand/16681/1984, Concentration 49.5 uM, Number of replicates 2.0, Standard deviation 2.532196482700825 %",-7.37%
same,inhibition,"Thailand/16681/1984, Concentration 99.01 uM, Number of replicates 2.0, Standard deviation 0.1962596660766768 %",-5.26%
same,inhibition,"Thailand/16681/1984, Concentration 198.0 uM, Number of replicates 2.0, Standard deviation 1.7247831523377455 %",-1.52%
CC(C)Nc1nc2ccc(C(=O)Nc3nnc4cccnn34)cc2[nH]1,inhibition,"Thailand/16681/1984, Concentration 49.5 uM, Number of replicates 2.0, Standard deviation 0.47864102228875616 %",-2.54%
same,inhibition,"Thailand/16681/1984, Concentration 99.01 uM, Number of replicates 2.0, Standard deviation 0.9476878624230379 %",-0.35%
same,inhibition,"Thailand/16681/1984, Concentration 198.0 uM, Number of replicates 2.0, Standard deviation 0.5058242222917364 %",4.68%
Cc1nn(Cc2noc(-c3ccccc3)n2)cc1C1CCNCC1,inhibition,"Thailand/16681/1984, Concentration 49.5 uM, Number of replicates 2.0, Standard deviation 0.8802677194228591 %",0.157%
same,inhibition,"Thailand/16681/1984, Concentration 99.01 uM, Number of replicates 2.0, Standard deviation 0.4630249405658938 %",0.972%
same,inhibition,"Thailand/16681/1984, Concentration 198.0 uM, Number of replicates 2.0, Standard deviation 1.7386847845568818 %",3.86%
Cc1cc(CO)c2cccc(Cc3cccc(C(=O)Nc4cc(O)[nH]n4)c3)c2n1,inhibition,"Thailand/16681/1984, Concentration 49.95 uM, Number of replicates 2.0, Standard deviation 1.1139101860624252 %",16.1%
same,inhibition,"Thailand/16681/1984, Concentration 99.9 uM, Number of replicates 2.0, Standard deviation 0.5605490390974336 %",35%
CC(C)(CO)NC(=O)c1cc(Cl)cc(CCc2ccccn2)c1,inhibition,"Thailand/16681/1984, Concentration 49.5 uM, Number of replicates 2.0, Standard deviation 2.7116489971157214 %",-3.98%
same,inhibition,"Thailand/16681/1984, Concentration 99.01 uM, Number of replicates 2.0, Standard deviation 2.41618896804853 %",-3.4%
same,inhibition,"Thailand/16681/1984, Concentration 198.0 uM, Number of replicates 2.0, Standard deviation 2.838465745418212 %",-2.83%
O=Cc1ccc(N2CCC(C(=O)NC[C@@H]3CCCN4CCCC[C@H]34)CC2)cc1,inhibition,[1],12.3%
O=Cc1ccc(N2CCC(C(=O)Nc3ccc4c(c3)C(=O)NC4=O)CC2)cc1,inhibition,[1],18.1%
COc1cc(Cc2cc(N)nc(C(F)(F)F)c2)nc(N2CCNCC2)n1,inhibition,"Thailand/16681/1984, Concentration 49.5 uM, Number of replicates 2.0, Standard deviation 2.297956605557041 %",-0.576%
same,inhibition,"Thailand/16681/1984, Concentration 99.01 uM, Number of replicates 2.0, Standard deviation 2.0097364356865053 %",1.03%
same,inhibition,"Thailand/16681/1984, Concentration 198.0 uM, Number of replicates 2.0, Standard deviation 2.0092163014290323 %",3.02%
O=Cc1ccc(N2CCC(C(=O)NCC[C@H](O)c3ccccc3)CC2)cc1,inhibition,[1],11.9%
O=C(c1cc2ccccc2[nH]1)N1CC[C@H](n2cnc3ccccc32)C1,inhibition,"Thailand/16681/1984, Concentration 49.5 uM, Number of replicates 2.0, Standard deviation 0.5333738443614924 %",-0.39%
same,inhibition,"Thailand/16681/1984, Concentration 99.01 uM, Number of replicates 2.0, Standard deviation 0.023947502149101903 %",2.52%
same,inhibition,"Thailand/16681/1984, Concentration 198.0 uM, Number of replicates 2.0, Standard deviation 0.0283014401876713 %",5.83%
CNC(=O)c1cc(Cl)ccc1NS(=O)(=O)CC1(N(C)C)CCC1,inhibition,"Thailand/16681/1984, Concentration 49.5 uM, Number of replicates 2.0, Standard deviation 0.05634696471118445 %",-7.46%
CC(C)(CO)NC(=O)c1cc(Cl)cc(NC(=O)c2cc(S(N)(=O)=O)c[nH]2)c1,inhibition,"Thailand/16681/1984, Concentration 49.5 uM, Number of replicates 2.0, Standard deviation 2.8822580911886684 %",-8.12%
same,inhibition,"Thailand/16681/1984, Concentration 99.01 uM, Number of replicates 2.0, Standard deviation 5.934645813901623 %",-7.35%
same,inhibition,"Thailand/16681/1984, Concentration 198.0 uM, Number of replicates 2.0, Standard deviation 0.9665420443701438 %",-2.84%
c1ccc2c([C@H]3CCN(Cc4cocn4)C3)c[nH]c2c1,inhibition,"Thailand/16681/1984, Concentration 49.5 uM, Number of replicates 2.0, Standard deviation 2.738583973254397 %",-1.51%
same,inhibition,"Thailand/16681/1984, Concentration 99.01 uM, Number of replicates 2.0, Standard deviation 2.748119423775471 %",-1.02%
same,inhibition,"Thailand/16681/1984, Concentration 198.0 uM, Number of replicates 2.0, Standard deviation 3.6277657089904616 %",0.218%
Cc1cc(CO)c2cccc(NC(=O)[C@@H]3C[C@@H](O)CN3)c2n1,inhibition,"Thailand/16681/1984, Concentration 49.95 uM, Number of replicates 2.0, Standard deviation 2.380826244861343 %",16.8%
same,inhibition,"Thailand/16681/1984, Concentration 99.9 uM, Number of replicates 2.0, Standard deviation 17.981184833005678 %",18.7%
OCc1cc(C2CCN(Cc3c[nH]c4ccccc34)CC2)no1,inhibition,"Thailand/16681/1984, Concentration 49.5 uM, Number of replicates 2.0, Standard deviation 2.1499056849188833 %",-5.2%
same,inhibition,"Thailand/16681/1984, Concentration 99.01 uM, Number of replicates 2.0, Standard deviation 1.6007624259654678 %",-4.89%
same,inhibition,"Thailand/16681/1984, Concentration 198.0 uM, Number of replicates 2.0, Standard deviation 2.427993457379461 %",-2.83%
